According to patent publication US11633499B2, “Anti-TMEM-180 antibody, anticancer drug and cancer testing method” (NATIONAL CANCER CENTER JAPAN, priority 2016, dated 2023):
“Also recorded” adds a separate entry of the source.

Key:
normal stroma = test: Reactivity to normal stroma; type: binding; conditions: compared with the 1361 antibody
wild type DLD-1 cells = test: ADCC activity (51Cr release, TK176V effector cells), wild type DLD-1; type: cell-based, human; conditions: ET ratio 40; 4 hours; 0.064 to 1,000 ng/mL; FIGS. 20A to 20D
[1] = molecular target: T1, TMEM-180 on colon cancer cell DLD-1 line (Homo sapiens, UniProt Q14CX5); test: Binding properties by flow cytometry, DLD-1 lines (TMEM-180 forced expression, parent, knockdown); conditions: primary antibody 1 μg/mL or 0.1 μg/mL; FIGS. 15 and 16
T1 construct: endogenous in cells; host or cells: DLD-1 parent line, TMEM-180 knockdown DLD-1 line, and DLD-1 line stably transfected with plasmid RC219636 (human TMEM180 cDNA)
T1 sequence (Q14CX5 1-517): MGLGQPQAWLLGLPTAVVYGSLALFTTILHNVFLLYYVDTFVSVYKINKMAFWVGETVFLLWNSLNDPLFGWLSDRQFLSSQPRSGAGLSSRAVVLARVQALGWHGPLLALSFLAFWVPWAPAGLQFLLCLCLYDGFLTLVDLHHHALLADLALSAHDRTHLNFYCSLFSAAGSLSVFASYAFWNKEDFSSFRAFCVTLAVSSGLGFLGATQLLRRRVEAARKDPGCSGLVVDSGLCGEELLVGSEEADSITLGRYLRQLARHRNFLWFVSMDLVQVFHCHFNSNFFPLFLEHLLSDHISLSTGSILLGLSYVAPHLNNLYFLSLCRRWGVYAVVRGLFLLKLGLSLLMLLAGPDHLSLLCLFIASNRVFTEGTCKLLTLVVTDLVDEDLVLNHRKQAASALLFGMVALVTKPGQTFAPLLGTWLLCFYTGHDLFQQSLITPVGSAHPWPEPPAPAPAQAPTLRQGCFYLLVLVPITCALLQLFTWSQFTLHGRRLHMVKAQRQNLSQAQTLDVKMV

[2] = tested on: normal tissues (skin, brain, small intestine, liver, heart, lung, kidney); test: Immune histochemistry of normal human tissues; type: binding
Procedure: The paraffin sections were prepared from the tissue specimens in the same way as shown in Example 6 according to a routine procedure. The prepared sections were subjected to reactions with 1 μg/mL of one of the above antibodies. An HRP-labelled anti rat antibody was used as a secondary antibody, which emitted light with DAB. The observation was performed after hematoxylin staining.

K562 cells = test: Binding properties by flow cytometry, K562 negative control; conditions: primary antibody 1 μg/mL or 0.1 μg/mL
Procedure: TMEM-180-forcibly expressed line of the colon cancer cell DLD-1 line, the parent line thereof, and the TMEM-180 knockdown line were cultured. […] K562 cells were used as a negative control.
The cancer cell lines to be subjected to the measurement were suspended in the medium, and then were added to a V-bottom, 96 well plate (corning) at 1×10^5 cells/well. After the plate was centrifuged at 440×g for 3 minutes at 4° C., the supernatant was removed and the antibody solution was added at 50 μL/well to the cell pellet, which was then suspended. The final concentration of the primary antibody was 1 μg/mL or 0.1 μg/mL. After reaction for 45 minutes on ice, the pellet was washed three times with 200 μg/well of 0.1% BSA/2 mM EDTA/PBS. After the supernatant was discarded, the secondary antibody was added at 50 μL/well to the cell pellet, which was then suspended. The ALEXAFLUOR 647@(fluorescent compound) Goat anti-Human IgG (H-L) (Life Technologies) diluted with 0.1% BSA/2 mM EDTA/PBS 400 times was used as a secondary antibody. After reaction for 45 minutes on ice, the cell pellet was washed three times with 0.1% BSA/2 mM EDTA/PBS 200 μL/well. […] The cells thus stained were measured with a flow cytometer such as Guava easyCyte 8HT (Merck Millipore). The obtained data were analyzed with FlowJO (TOMY Digital Biology).

[3] = tested on: colon cancer tissue arrays; test: Staining of colon cancer tissue array (immunohistochemistry); type: binding; conditions: tissues D8, B7 and B5; FIG. 17
Description: The colon cancer tissue arrays were purchased from BioChain Institute Inc. (Newark, Calif.) and used in the experiment. Each tissue array was stained according to the manufacturer's manual.

B1: 1361-5 antibody: human chimera IgG1 variant of 1361 with Y78A in heavy chain CDR2; heavy chain SEQ ID NO: 180, light chain SEQ ID NO: 182 (antibody)
heavy: MDIRLSLVFLVLFIKGVQCEVQLVESGGGLVQPGRSLKLSCVASGFTFNNYWMTWIRQAPGKGLEWVASITNTGGSTAYPDSVKGRFTISRDYAKSTLYLQMNSLRSEDTATYYCTRAGYSSYPDYFDYWGQGVMLTVSS[human IgG1 constant region not shown]
light: MMAPVQLLGLLLLWLPAMRCNIQMTQSPSLLSASVGDRVTLSCKAGQNIYNYLAWYQQKLGEAPKLLIYNANSLQTGIPSRFSGSGSGTDFTLTISSLQPEDVATYFCQQYSSGWTFGGGTKLELKRTVAAPSVFIFPPSDEQLKSGTASVVCLLNNFYPREAKVQWKVDNALQSGNSQESVTEQDSKDSTYSLSSTLTLSKADYEKHKVYACEVTHQGLSSPVTKSFNRGEC
reactivity to normal stroma (normal stroma): reduced reactivity to normal stroma | ADCC activity against wild type DLD-1 cells (wild type DLD-1 cells): stronger than that of cetuximab | binding to DLD-1 cell line [1]: binds to the surface; also recorded: recognized DLD-1 cell line in a TMEM-180 dependent manner | reactivity to normal skin tissues ([2]; FIG. 13): does not recognize normal skin tissues | recognition of normal tissues besides skin ([2]; FIG. 14): does not recognize normal tissues besides skin | recognition of K562 cells (K562 cells): did not recognize | staining of colon cancer tissue array [3]: well stains the tissues; also recorded: well stained
